From paper PMC4336329 (PLoS ONE, 2015) come the findings set out here.

The campaign covered roughly 310,000 compounds. About 14,000 (4.5%) showed an effect of 50% or more. Effects have a minus sign here. The list shows a part of the results.
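Also: peak tail current of the secondary pulse compared with the same well before compound.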

The target in this test is human ether-à-go-go-related gene (hERG) potassium channel (human, UniProt Q12809). The test can be described thus: primary screen, population patch clamp on CHO cells stably expressing hERG.
human ether-à-go-go-related gene (hERG) potassium channel, sequence (Q12809 whole entry, looked up): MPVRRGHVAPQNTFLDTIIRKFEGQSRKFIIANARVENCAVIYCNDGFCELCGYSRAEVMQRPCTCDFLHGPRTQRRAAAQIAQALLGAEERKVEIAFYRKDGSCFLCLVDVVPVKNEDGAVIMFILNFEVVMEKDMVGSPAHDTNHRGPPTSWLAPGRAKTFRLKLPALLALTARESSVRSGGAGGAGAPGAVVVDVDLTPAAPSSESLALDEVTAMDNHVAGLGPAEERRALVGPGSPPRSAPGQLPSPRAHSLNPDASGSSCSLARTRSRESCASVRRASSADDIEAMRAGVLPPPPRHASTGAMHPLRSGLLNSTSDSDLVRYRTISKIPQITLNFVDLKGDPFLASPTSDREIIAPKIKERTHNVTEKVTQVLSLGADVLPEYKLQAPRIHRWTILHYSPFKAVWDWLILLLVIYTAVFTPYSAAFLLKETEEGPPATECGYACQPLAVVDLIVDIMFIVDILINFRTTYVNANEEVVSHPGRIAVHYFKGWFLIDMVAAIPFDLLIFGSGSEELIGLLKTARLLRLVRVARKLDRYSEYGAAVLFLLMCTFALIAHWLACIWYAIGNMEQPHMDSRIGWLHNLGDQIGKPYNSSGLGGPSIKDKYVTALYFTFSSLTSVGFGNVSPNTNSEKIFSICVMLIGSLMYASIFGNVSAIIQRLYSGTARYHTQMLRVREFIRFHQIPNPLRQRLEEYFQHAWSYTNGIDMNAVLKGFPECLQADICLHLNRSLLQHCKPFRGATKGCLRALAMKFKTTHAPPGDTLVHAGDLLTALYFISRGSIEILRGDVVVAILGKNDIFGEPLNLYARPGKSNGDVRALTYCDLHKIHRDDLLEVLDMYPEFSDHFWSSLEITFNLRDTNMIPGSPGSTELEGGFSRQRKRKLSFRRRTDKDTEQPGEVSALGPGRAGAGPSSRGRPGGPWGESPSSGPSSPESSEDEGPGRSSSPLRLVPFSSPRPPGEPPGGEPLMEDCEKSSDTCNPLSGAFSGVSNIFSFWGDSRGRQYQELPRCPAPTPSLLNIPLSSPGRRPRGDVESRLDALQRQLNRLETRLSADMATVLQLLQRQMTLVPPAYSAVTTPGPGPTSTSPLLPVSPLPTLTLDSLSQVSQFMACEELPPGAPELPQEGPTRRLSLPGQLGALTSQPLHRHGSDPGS
Turning to `Cc1ccccc1Nc1c(F)c(F)c(F)c(F)c1C(=O)O`, the “hERG current change (%, negative = inhibition) at 10uM” value amounted to 9.82%. Next, `O=C(CCCN1C(=O)/C(=C\c2cccc(Br)c2)SC1=S)Nc1cccnc1`: 6.32%; `Cc1cc(C)cc(SCc2noc(C(=O)NCc3ccccc3)c2C(=O)NCc2ccccc2)c1`: 15%; `CCOc1cc(/C=C/C(=O)O)ccc1OCCO`: 6.59%. Next, `CC(C)CCNC(=O)C(CC(C)C)N(Cc1ccc2c(c1)OCO2)C(=O)c1snc(C(N)=O)c1N` (centres unmarked): -0.977%; `CCCC1C(c2ccco2)NC(c2ccco2)CC1(C)O.O=C(O)C(=O)O` (centres unmarked): 0.914%; `CCOc1ccccc1CNC(=O)CCNC(=O)Cn1ccc2ccccc2c1=O`: 5.64%.

As for `CS(=O)(=O)Nc1ccc(N2CCCCC2)c(Cl)c1`, the “hERG current change (%, negative = inhibition) at 10uM” value was -32.6%. Next, `O=C(CSc1cccs1)NCCc1ccccc1`: 13.1%; `COc1ccc(C(c2nnnn2Cc2ccccc2)N2CCN(c3nc4ccccc4s3)CC2)cc1` (centres unmarked): 13.7%. In the case of `COc1ccc(C)cc1NC(=O)CN(C)S(=O)(=O)c1ccc2c(c1)CCCN2C(C)=O`, the “hERG current change (%, negative = inhibition) at 10uM” value was -21.8%. The value for `CC(C)OCCCN1CN(S(=O)(=O)c2cccc(Cl)c2)c2nc3ccccc3nc21` was 0.29%; that for `CCOc1ccccc1NC(=O)NS(=O)(=O)c1ccc(C)cc1` was 17.2%. Next, `Cc1cccc(N2C(=O)c3cccc4c(N5CCCCC5)c([N+](=O)[O-])cc(c34)C2=O)c1C`: 6.59%.

In the case of `O=C(COc1ccc(Cl)cc1)N/N=C/CCc1ccccc1`, the “hERG current change (%, negative = inhibition) at 10uM” value is listed as -16.4%. The value for `CCOc1ncccc1C(=O)OCC(=O)Nc1nnc(-c2ccccc2)o1` was -11.3%; that for `CCn1c(SCc2nc3scc(-c4ccccc4)c3c(=O)[nH]2)nnc1-c1cccs1` was -23.4%. For `C/C=C/c1ccc(OCC(O)CNCC(c2ccc(OC)cc2)N(C)C)c(OC)c1.O=C(O)C(=O)O` (centres unmarked), the “hERG current change (%, negative = inhibition) at 10uM” value is reported as -66.5%. The value for `O=C(CN1C(=O)CSC1=O)c1ccccc1` was 1.83%. The value for `COc1cccc(N2CCN(C(=O)CCCCCn3c(=S)[nH]c4cc5c(cc4c3=O)OCO5)CC2)c1` was 20.6%. The value for `CC1Oc2ccccc2N(CC(=O)NCc2cccs2)C1=O` (centres unmarked) was 0.0611%; that for `Cc1cccc(C)c1NC(=O)CN(C)C(=O)c1ccc2c(=O)n3c(nc2c1)CCC3` was 9.41%; that for `O=[N+]([O-])C1C(c2ccccc2)=NOC1c1ccccc1O` (centres unmarked) was 14%. For the compound `O=C(CCCN1C(=O)/C(=C/c2cccs2)SC1=S)Nc1ccc(C(=O)O)cc1`, the “hERG current change (%, negative = inhibition) at 10uM” value is on record as 13.5%. Next, `O=C(Nc1ccc2c(c1)CCC2)c1ccc(Cl)nc1`: -7.3%; `Cc1cc2cc(C)c3nnc(SCC(=O)Nc4ccc(S(=O)(=O)N5CCCCC5C)cc4)n3c2cc1C` (centres unmarked): 4.05%. As to `Cc1ccc(-c2nn(-c3ccccc3)cc2CN(C)C(=O)CCC(=O)O)cc1C`, the “hERG current change (%, negative = inhibition) at 10uM” value is on record as 16.1%.

For the compound `O=C(N/N=C/c1cc2c(cc1Br)OCO2)c1c[nH]c2ccccc12`, the “hERG current change (%, negative = inhibition) at 10uM” value was found to be 14.2%. As for `CCn1cc([N+](=O)[O-])c(C(=O)N2CCCCCC2)n1`, the “hERG current change (%, negative = inhibition) at 10uM” value turned out to be 17.1%. Next, `COc1ccc(CCCc2nnc(SCC(=O)NN)o2)cc1`: 9.04%; `Cc1ccc(-c2noc(CCC(N)=O)n2)cc1`: -4.28%; `COc1cccc(-c2nnc(SCC(=O)N3CCOCC3)o2)c1`: 4.32%. The value for `Cc1c(NC(=O)c2cc3nc(-c4ccccc4)cc(C)n3n2)c(=O)n(-c2ccccc2)n1C` was -8.61%; that for `Cc1cccn2c(=O)c3cc(C(=O)NCc4ccco4)c(=N)n(CCc4ccccc4)c3nc12` was -76.5%. For the compound `COC(=O)c1ccc(OC(=O)c2ccc(OC)cc2)c(OC)c1`, the “hERG current change (%, negative = inhibition) at 10uM” value came out at 11.8%. For `COc1ccc(N/C(C)=C2/C(=O)C(=O)N(CCO)C2c2ccc([N+](=O)[O-])cc2)cc1` (centres unmarked), the “hERG current change (%, negative = inhibition) at 10uM” value is -67.3%. Take `COc1cc(/C=N\NC(=O)C2CC3C=CC2C3)ccc1O` (centres unmarked): the “hERG current change (%, negative = inhibition) at 10uM” value amounted to 12%.

Take `Cc1ccc2[nH]c3c(c2c1)CCC3=O`: the “hERG current change (%, negative = inhibition) at 10uM” value stood at 1.27%. Next, `CCCCC(=O)NC(=S)NNC(=O)c1ccc(OC)cc1`: 13%; `Cc1cccc(C)c1NS(=O)(=O)c1ccc(OCCNS(C)(=O)=O)cc1`: -4.99%; `Cc1cc(Nc2ccccc2)n(-c2nc3ccccc3[nH]2)n1`: -4.71%. The value for `CCN(C(=O)COC(=O)COc1ccccc1Cl)c1c(N)n(Cc2ccccc2)c(=O)[nH]c1=O` was 8.77%; that for `CCN(CC)C(=O)CN1C(=O)C2(OCC(C)(C)CO2)c2ccccc21` was 4.84%; that for `CCCCc1nnc(NC(=O)CN2C(=O)C3CCCCC3C2=O)s1` (centres unmarked) was 2.03%.
